{
  "source": "the antibiotic and cytotoxicity screens of Wong et al. (2023)",
  "key": {"HSkMC": {"system": "HSkMC", "assay": "cytotoxicity call (relative viability < 0.9)", "conditions": "10 µM"}, "HepG2": {"system": "HepG2", "assay": "cytotoxicity call (relative viability < 0.9)", "conditions": "10 µM"}, "S. aureus RN4220": {"system": "S. aureus RN4220", "assay": "growth inhibition call (relative growth <= 0.2)", "conditions": "50 µM"}},
  "note": "Some of the results follow.",
  "data": [
    {"smiles": "COc1ccc(S(=O)(=O)N[C@H]2CC[C@H](CC(=O)N3CCC(Cc4ccccc4)CC3)O[C@H]2CO)cc1", "values": [
      {"measurement": "cytotoxicity call", "setting": "HSkMC", "value": "inactive"},
      {"measurement": "cytotoxicity call", "setting": "HepG2", "value": "inactive"},
      {"measurement": "growth inhibition call", "setting": "S. aureus RN4220", "value": "inactive"}
    ]},
    {"smiles": "C[C@@H]1CN([C@H](C)CO)C(=O)Cc2cc(NC(=O)Nc3ccc(C(F)(F)F)cc3)ccc2O[C@@H]1CN(C)C(=O)Nc1ccc(C(F)(F)F)cc1", "values": [
      {"measurement": "cytotoxicity call", "setting": "HSkMC", "value": "active"},
      {"measurement": "cytotoxicity call", "setting": "HepG2", "value": "active"},
      {"measurement": "growth inhibition call", "setting": "S. aureus RN4220", "value": "inactive"}
    ]},
    {"smiles": "C[C@@H]1CN([C@H](C)CO)C(=O)Cc2cc(NC(=O)Nc3cccc4ccccc34)ccc2O[C@H]1CN(C)C(=O)Nc1ccc(F)cc1", "values": [
      {"measurement": "cytotoxicity call", "setting": "HSkMC", "value": "inactive"},
      {"measurement": "cytotoxicity call", "setting": "HepG2", "value": "inactive"},
      {"measurement": "growth inhibition call", "setting": "S. aureus RN4220", "value": "inactive"}
    ]},
    {"smiles": "c1ccc(-c2n[nH]c3c2CCC3)cc1", "values": [
      {"measurement": "cytotoxicity call", "setting": "HSkMC", "value": "inactive"},
      {"measurement": "cytotoxicity call", "setting": "HepG2", "value": "inactive"},
      {"measurement": "growth inhibition call", "setting": "S. aureus RN4220", "value": "inactive"}
    ]},
    {"smiles": "NS(=O)(=O)c1cc(C(=O)O)c(NCc2ccco2)cc1Cl", "values": [
      {"measurement": "cytotoxicity call", "setting": "HSkMC", "value": "inactive"},
      {"measurement": "cytotoxicity call", "setting": "HepG2", "value": "inactive"},
      {"measurement": "growth inhibition call", "setting": "S. aureus RN4220", "value": "inactive"}
    ]},
    {"smiles": "COc1ccc(S(=O)(=O)Nc2ccc3c(c2)C(=O)N([C@@H](C)CO)C[C@H](C)[C@@H](CN(C)C(=O)Nc2ccccc2)OCCCC[C@H](C)O3)cc1", "values": [
      {"measurement": "cytotoxicity call", "setting": "HSkMC", "value": "inactive"},
      {"measurement": "cytotoxicity call", "setting": "HepG2", "value": "inactive"},
      {"measurement": "growth inhibition call", "setting": "S. aureus RN4220", "value": "inactive"}
    ]},
    {"smiles": "O=C(C[C@@H]1CC[C@H]2[C@@H](COC[C@@H](O)CN2C(=O)Nc2ccc3c(c2)OCO3)O1)N1CCN(c2ccccc2)CC1", "values": [
      {"measurement": "cytotoxicity call", "setting": "HSkMC", "value": "inactive"},
      {"measurement": "cytotoxicity call", "setting": "HepG2", "value": "inactive"},
      {"measurement": "growth inhibition call", "setting": "S. aureus RN4220", "value": "inactive"}
    ]},
    {"smiles": "C[C@@H]1CCCCO[C@H](CN(C)C(=O)Nc2ccc3c(c2)OCO3)[C@H](C)CN([C@H](C)CO)C(=O)c2cc(NC(=O)NC3CCCCC3)ccc2O1", "values": [
      {"measurement": "cytotoxicity call", "setting": "HSkMC", "value": "inactive"},
      {"measurement": "cytotoxicity call", "setting": "HepG2", "value": "active"},
      {"measurement": "growth inhibition call", "setting": "S. aureus RN4220", "value": "inactive"}
    ]},
    {"smiles": "COc1ccc(NC(=O)N(C)C[C@H]2Oc3ccc(NC(=O)Nc4cccc5ccccc45)cc3CC(=O)N([C@@H](C)CO)C[C@@H]2C)cc1", "values": [
      {"measurement": "cytotoxicity call", "setting": "HSkMC (human skeletal muscle cells)", "value": "inactive"},
      {"measurement": "cytotoxicity call", "setting": "HepG2", "value": "inactive"},
      {"measurement": "growth inhibition call", "setting": "S. aureus RN4220", "value": "inactive"}
    ]}
  ]
}
